About 1,700 (3.3%) of roughly 52,000 compounds were called active. Cut-off read from the data, not from the text of the source: active = survival mostly below about 52% (no sharp cut-off); inactive = mostly above about 56%. Some of the results follow.
Each compound was assayed on Wild type (assay: growth inhibition of S. aureus wild type versus tarO mutant, primary screen, teichoic acid synthesis inhibitors, RN4220, OD600 (AID 463173)). Conditions: S. aureus RN4220 wild type/DeltatarO growth, OD600, 18 h, hits give low values, screened at 18.75 µg/mL (by protocol).
`COc1cc(-c2cc(OC)c3c(C)oc(C)c3c(=O)c2)ccc1OC(=O)c1ccccc1Cl` was tested, and the survival was inactive: 94%. `COc1cc(Cl)c(NC(=O)CCS(=O)(=O)c2cc3c(cc2Cl)NC(=O)CO3)c(OC)c1` was tested, and the survival was inactive: 59%. With `COC(=O)CNc1nc(C2CC2)nc2c1nnn2Cc1ccccc1Cl` the survival was inactive: 107%. With `Cc1ccc2nc(N3CCN(c4cccc(Cl)c4)CC3)c(-n3nc(C)cc3C)nc2c1` the survival was active: 3%. In the case of `CC(=O)Nc1ccc(S(=O)(=O)Nn2cnnc2)cc1`, the survival is reported as inactive: 113%. For `CCOC(=O)C1=C(CN2CCC(C)CC2)NC(=O)NC1c1ccc(F)cc1` (centres undefined), the survival was inactive: 45%. `Cc1cc(C)c2c(=O)cc(CSCC(=O)Nc3ccccc3Cl)[nH]c2c1` was tested, and the survival was inactive: 73%. `Cc1ccc(-c2cc3ncc4c(n3n2)-c2cc(C)ccc2OC4)cc1` was tested, and the survival was inactive: 78%. In the case of `O=C(O)CSCC(=O)Nc1cccc2ccccc12`, the survival is reported as inactive: 102%. In the case of `COc1ccc(CNC(=O)c2ccc(N3CCCC3)c(NC(=O)NCc3ccc(F)cc3)c2)cc1`, the survival is reported as inactive: 66%. With `Cc1ccc(N2C(=O)CSC23C(=O)N(CC(=O)NCc2ccccc2)c2ccccc23)cc1C` (centres undefined) the survival was inactive: 74%. For `CNC(=O)c1c(NC(=O)c2ccc(S(=O)(=O)N3CCC(C)CC3)cc2)sc2c1CCC2`, the survival was inactive: 129%. For `Cc1cccc(C)c1OCC(=O)NCC1(N(C)C)CCCCC1`, the survival was inactive: 88%. `COc1ccccc1CNC(=O)C1CCC(CNS(=O)(=O)c2ccc3c(c2)CCCC(=O)N3)CC1` (centres undefined) was tested, and the survival was inactive: 88%. In the case of `COCCCNC(=O)c1ccc(NC(=O)c2nsc3ccccc23)cc1`, the survival is reported as inactive: 84%. With `CS(=O)(=O)c1ccc(-c2nnc(NC(=O)c3ccc4c(c3)OCCO4)o2)cc1` the survival was inactive: 75%. `CCN(CC)CCNC(=O)c1ccc(Cn2c(SCc3ccccc3)nc3cccnc32)cc1` was tested, and the survival was inactive: 88%. In the case of `Cc1ccc2c(Sc3ccc(Cl)cc3)c(C(=O)N3CCC(C)CC3)[nH]c2c1`, the survival is reported as inactive: 73%. `COc1ccc(CNS(=O)(=O)c2cnc(N)nc2)c(OC)c1` was tested, and the survival was inactive: 59%. For `CCC1CN(C(=O)N2CCC(C(=O)NCCN(CC)CC)CC2)c2cc(C)ccc2O1` (centres undefined), the survival was inactive: 86%. `CCc1nc2ccccc2n1CCCCOc1ccc(C)cc1` was tested, and the survival was active: 1%. For `CC(=O)c1ccc(NC(=O)Cn2cc(S(=O)(=O)Cc3cccc(Cl)c3)c3ccccc32)cc1`, the survival was inactive: 132%. With `N#CCn1c(Cc2ccccc2)nc2ccccc2c1=O` the survival was inactive: 109%. For `CCOc1cc(CNC(=O)c2sc3ncnc(N(C)C4CCCCC4)c3c2C)ccc1OC`, the survival was inactive: 79%. With `CCN(C(=O)c1cc2c(s1)-c1c(C)cccc1OC2)c1ccccc1F` the survival was inactive: 96%. `CCc1cc(=O)oc2c3c(c(Cl)cc12)OCN(Cc1cccc(OC)c1)C3` was tested, and the survival was inactive: 96%. `CCC(=O)N1CCc2cc(Br)cc(S(=O)(=O)Nc3ccc(C)cc3C)c21` was tested, and the survival was inactive: 87%. With `Cc1ccc(C(=O)ON2C(=O)c3ccccc3C2=O)cc1` the survival was inactive: 111%. In the case of `COc1ccc(CC(=O)N2CCc3cc(OC)c(OC)cc3C2COc2ccc(OC)cc2)cc1` (centres undefined), the survival is reported as inactive: 131%. With `CC(C)Oc1ccc(CNC(=O)CCCN2C(=O)c3cccnc3Oc3ccc(Cl)cc32)cc1` the survival was inactive: 69%. In the case of `c1ccc(-n2ncc3c(N4CCOCC4)ncnc32)cc1`, the survival is reported as inactive: 105%. In the case of `CCOC(=O)c1scc(-c2ccccc2)c1S(=O)(=O)Nc1cc(OC)cc(OC)c1`, the survival is reported as inactive: 71%. With `Cc1ccccc1OCC(=O)N1CCOCC1` the survival was inactive: 108%. For `O=C(O)C1C2C=CC(C2)C1C(=O)NCC1CCCO1` (centres undefined), the survival was inactive: 106%. In the case of `COc1ccc(-n2nc(C(=O)N(C)c3cc(C)ccc3C)c3c4ccccc4n(C)c3c2=O)cc1Cl`, the survival is reported as inactive: 81%. For `O=C(Cn1cc(SCc2c(F)cccc2Cl)c2ccccc21)N1CCCCCC1`, the survival was inactive: 88%. In the case of `Cc1ccc(C)c(NC(=O)c2cnn(-c3cccc(F)c3)c2C2CCN(C(=O)OC(C)(C)C)CC2)c1`, the survival is reported as inactive: 124%. In the case of `CCOc1ccc(NS(=O)(=O)c2ccc(-c3cc(C)no3)s2)cc1`, the survival is reported as inactive: 76%. For `CCN(c1ccccc1)S(=O)(=O)c1ccc(NC(=O)c2cc(=O)c3cc(C)cc(C)c3o2)cc1`, the survival was inactive: 83%. For `Cc1c(Cl)cccc1NC(=O)c1cnc2sc(N3CCOCC3)nn2c1=O`, the survival was inactive: 124%. For `Cc1nc2c(Cl)cc(Cl)cc2[nH]1`, the survival was inactive: 119%. With `CCC(=O)N1c2ccccc2CC1C(=O)NCCc1ccccc1C` (centres undefined) the survival was inactive: 70%. For `O=C(Nc1ccc2nn(-c3ccccc3)nc2c1)c1cc2ccccc2o1`, the survival was inactive: 80%. With `O=C(CSc1cn(CC(=O)N2CCOCC2)c2ccccc12)Nc1ccccc1F` the survival was inactive: 97%. `Cc1ccc(S(=O)(=O)Nc2ccc3c(c2)CCCN3C(=O)c2cccs2)cc1` was tested, and the survival was inactive: 63%. With `Cc1cc2ccccc2n1CCNC(=O)c1cccc(Br)c1` the survival was inactive: 70%. In the case of `c1ccc(CSc2n[nH]c(-c3ccncc3)n2)cc1`, the survival is reported as inactive: 110%. In the case of `CC(=O)N1Cc2ccccc2C(C)CC12CCCC2` (centres undefined), the survival is reported as inactive: 110%. `COc1ccc2oc(=O)cc(CN3CCN(Cc4ccccc4)CC3)c2c1` was tested, and the survival was inactive: 93%. In the case of `COc1ccc(OC)c(CCNC(=O)CCCn2c(=O)c3cccn3c3ccccc32)c1`, the survival is reported as inactive: 74%. In the case of `O=C(c1ccc2c(c1)N(Cc1ccc(Cl)cc1)C(=O)c1ccccc1S2=O)N1CCOCC1` (centres undefined), the survival is reported as inactive: 83%. `CCOc1ccccc1N1CC(c2nc3ccccc3n2CCOc2ccccc2)CC1=O` (centres undefined) was tested, and the survival was inactive: 31%. With `CCc1cccc(NC(=O)Cn2c(=O)ccc3cc(S(=O)(=O)N4CCC(C)CC4)ccc32)c1` the survival was inactive: 129%. In the case of `CCc1ccc(CNc2ncnc3c2nc2n3CCCC2)cc1`, the survival is reported as inactive: 71%. In the case of `Cc1cc(C)c2c(CC(=O)N3CCN(c4cccc(Cl)c4)CC3)coc2c1`, the survival is reported as inactive: 93%. For `CC1CCc2nc3ncn(Cc4ccccc4C#N)c(=O)c3cc2C1` (centres undefined), the survival was inactive: 71%. With `COc1cccc(N2CCN(C(=O)c3ccc(Cn4c(=O)[nH]c5cc(OC)c(OC)cc5c4=O)cc3)CC2)c1` the survival was inactive: 75%. `COc1ccc(C(CNC(=O)c2oc3ccc(Cl)cc3c2C)N2CCCCC2)cc1` (centres undefined) was tested, and the survival was inactive: 109%. For `CC(NS(=O)(=O)c1ccccc1)C(=O)NCc1ccc2c(c1)OCO2` (centres undefined), the survival was inactive: 116%.

Source: PubChem BioAssay AID463173 (ICCB-Longwood Screening Facility, Harvard Medical School, 2010)
